Here are results for 53 compounds from PubChem BioAssay AID1346428 (National Center for Advancing Translational Sciences (NCATS), 2018).

In all, about 48,000 compounds went through this assay and about 1,200 (2.5%) were called active. Inconclusive results (about 2%) are left out.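 Rule for the calls: active = activation of at least 60% and not above a set upper limit (about 1 call in 100 departs from these limits); inconclusive = activation of 40% to 60%, or above that upper limit; inactive = activation under 40%.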 The list shows a part of the results.

Sequence of UniProt O75388 (O75388 whole entry, looked up): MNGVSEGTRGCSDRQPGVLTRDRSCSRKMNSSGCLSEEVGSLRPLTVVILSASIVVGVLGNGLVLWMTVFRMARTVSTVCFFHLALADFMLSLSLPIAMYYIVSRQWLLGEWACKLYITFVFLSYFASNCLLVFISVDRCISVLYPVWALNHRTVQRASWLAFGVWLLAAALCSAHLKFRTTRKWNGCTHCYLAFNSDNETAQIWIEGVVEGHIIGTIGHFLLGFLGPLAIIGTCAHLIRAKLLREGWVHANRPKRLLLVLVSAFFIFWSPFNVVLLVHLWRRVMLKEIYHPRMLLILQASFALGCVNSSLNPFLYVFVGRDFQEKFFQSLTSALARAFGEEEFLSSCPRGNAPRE

For this experiment, the target named is Probable G-protein coupled receptor 32 (Homo sapiens) (UniProt O75388). Nature of the experiment: qHTS for Agonists of Human Resolvin D1 Receptor DRV1. Note: 0% is about no effect. To be noted: CHO-K1 GPR32 beta-arrestin PathHunter luminescence, 90 min; at 76.9 µM; stronger effect = higher value; zero percent set by DMSO-only wells. The gist of the method:
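Cells are plated overnight, treated with compounds in DMSO for 90 minutes at 37 °C, and developed with PathHunter detection reagent for 1 hour before luminescence is read; signal reflects beta-arrestin binding to GPR32 in engineered CHO-K1 cells.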
As to `O=C(c1ccc2c(c1)OCCO2)N(Cc1cccnc1)c1nc2c(F)cc(F)cc2s1`, the activation was inactive: -21.8%.
For the compound `COc1cccc(CNS(=O)(=O)c2ccc(-c3cc(C(F)(F)F)on3)s2)c1`, the activation was inactive: -14%.
On to `CCOC(=O)c1ccc(N2C(=O)Cc3cc(OCC)c(OCC)cc3C2c2ccccc2)cc1` (stereo not drawn), for which the activation is inactive: -3.84%.
As for `CCOc1ccc(NS(=O)(=O)c2ccc3[nH]cc(C(=O)N4CCCCCC4)c(=O)c3c2)cc1`, the figure is inactive: -1.85%.
As for `COc1ccc(N(CC(=O)Nc2cc(Cl)ccc2C)S(=O)(=O)c2c(C)noc2C)cc1`, the figure is inactive: -4.88%; as for `CCOc1ccc(C(=O)Nc2ccc3oc(-c4ccc(Br)cc4)nc3c2)cc1`, inactive: 0.786%.
Regarding `Cc1ccccc1-c1nc(SCC(=O)NCC2CCCO2)c2c(=O)n(C)c(=O)n(C)c2n1` (stereo not drawn), the activation was inactive: -5.31%.
For `COc1ccc(Cc2nc3ccc(C(=O)NCCCN4CCN(C)CC4)cc3o2)cc1` the value was inactive: -30.8%.
Regarding `Cc1cccc(CCNC(=O)CCc2c(C)nc3ncnn3c2C)c1`, the activation is inactive: -2.29%.
As for `COCCNC(=O)c1ccc2c(=O)n(CCOC)c(SCC(=O)c3c[nH]c4ccccc34)nc2c1`, the activation is inactive: 8.48%.
As for `COc1ccc(N2CCN(C(=O)c3sc4nc5n(c(=O)c4c3C)CCC5)CC2)cc1`, the figure is inactive: -14%; as for `COc1ccccc1NC(=O)CCn1cnc2onc(-c3ccc(F)cc3)c2c1=O`, inactive: 37%.
As for `COc1cc(C)ccc1OCCSc1nc2ccc(NC(=O)c3ccc(C)cc3)cc2s1`, the figure is inactive: -0.17%; as for `CC1(C)CC(=O)c2cc(-c3nc(-c4ccc(Cl)cc4)cs3)c(=O)n(-c3cccc(F)c3)c2C1`, inactive: 20.1%; as for `CCCNC(=O)C1CCN(Cc2cc3ccccc3n2Cc2ccccc2)CC1`, inactive: -12.7%.
For the compound `COc1ccc(CNC(=O)CCc2c(C)nc3nc(CNC(=O)OC(C)(C)C)nn3c2C)cc1`, the activation is inactive: -7.07%.
For the compound `Cn1cc(C(=O)NCCc2ccccc2)c(=O)c2cc(S(=O)(=O)N3CCCCCC3)ccc21`, the activation is inactive: -19.1%.
As to `Cc1c(C(=O)N(Cc2ccc(N(C)C)cc2)Cc2ccco2)oc2cc(Br)ccc12`, the activation is inactive: -24.9%.
As for `CC(=O)c1cccc(Nc2nn(-c3ccc(OC(F)(F)F)cc3)nc2C(C)=O)c1`, the activation is inactive: -7.26%.
In the case of `COc1ccc(-c2ccc(CCC(=O)O)n2CC(=O)Nc2cccc(Cl)c2C)cc1`, the activation was inactive: -24.7%.
On to `CCCSc1nnc2c(n1)OC(c1ccc(OCC(=O)O)cc1)Nc1ccccc1-2` (stereo not drawn), for which the activation is inactive: -6.3%.
Turning to `COc1ccccc1-c1noc(-c2ccc(NCc3cccnc3)c([N+](=O)[O-])c2)n1`, the activation was inactive: -18.4%.
Take `CCCCN1CCC(n2c(=O)[nH]c3ccccc32)CC1`: the activation was inactive: -5.33%.
In the case of `O=C(CN1C(=O)CC(c2ccco2)Sc2ccccc21)Nc1ccc(Br)cc1` (stereo not drawn), the activation was inactive: -4.69%.
For `CCc1cc2c(cc3c(=O)n(CC(=O)NC4CCCCC4)ncn32)s1`, the activation was inactive: -0.31%.
With `COc1ccc(-n2ccn(Cc3ccccc3C)c(=O)c2=O)cc1`, the activation was inactive: -26.3%.
On to `CCCCn1cc(S(=O)(=O)c2ccc(CC)cc2)c(=O)c2cc(F)c(N3CCOCC3)cc21`, for which the activation is inactive: -7.82%.
For `Cc1cc(C)cc(NC(=O)C(=O)NCC(c2cccnc2)N2CCN(c3ccccc3)CC2)c1` (stereo not drawn) the value was inactive: -8.87%; for `COc1cccc(C(c2sc3nc(-c4ccco4)nn3c2O)N2CCN(c3ccccc3F)CC2)c1` (stereo not drawn), inactive: -7.32%.
In the case of `CCOc1ccc(N(C(C)C(=O)NCCSc2ccc(C)cc2)S(C)(=O)=O)cc1` (stereo not drawn), the activation is inactive: 17.4%.
On to `COc1ccc(NC(=O)C(C)Sc2cc(-c3ccccc3)nc(C)n2)cc1Cl` (stereo not drawn), for which the activation is inactive: -18.2%.
For `COc1ccc(-c2cc(C(=O)NCCc3ccc(OC)c(OC)c3)c3ccccc3n2)cc1`, the activation is inactive: -46.7%.
Consider `O=C1CN(C(=O)Nc2ccccc2Cl)C(c2ccccc2)c2c(sc3c2CCCC3)N1` (stereo not drawn), for which the activation is inactive: -15.4%.
Turning to `Cc1nn(-c2ccccc2)c2c1N(CCCC(=O)NCc1ccccc1)C(=O)CS2`, the activation was inactive: -18.4%.
In the case of `CC(=O)Nc1ccc(NC(=O)c2cc3sccc3n2Cc2ccc(Cl)cc2)cc1`, the activation was inactive: 39.5%.
As to `Cc1cc(C)cc(NC(=O)Nc2ccccc2OCc2cc(=O)n3ccccc3n2)c1`, the activation was inactive: -5.68%.
For the compound `CCOC(=O)c1c(NC(=O)/C(C#N)=C/c2ccccc2)sc2c1CCC2`, the activation is inactive: 13.3%.
As to `COc1cc(NC(=O)Cn2cnc3c2c(=O)n(C)c(=O)n3C)c(OC)cc1Cl`, the activation was inactive: 12.8%.
As to `CCOc1ccccc1NC(=O)c1c(NCc2cccs2)sc2c1CCCCC2`, the activation was inactive: -12.7%.
For the compound `CCOc1cc(/C=C(\C#N)C(=O)Nc2ccc(C)cc2)ccc1OCc1cc(=O)n2nc(CC)sc2n1`, the activation was inactive: 1.78%.
As for `CCOc1ccc(NC(=O)c2c(NC(=O)c3ccccc3F)sc3c2CCC3)cc1`, the figure is inactive: 3.98%.
Take `C#CCn1cnc2c(cnn2-c2ccc(F)cc2)c1=O`: the activation is inactive: -4.94%.
On to `CCC(=O)N1CCc2cc(Br)cc(S(=O)(=O)CCC(=O)Nc3ccc(C)c(F)c3)c21`, for which the activation is inactive: -2.55%.
For `O=C(NOCC1CC1)c1ccc(F)c(F)c1Nc1ccc(I)cc1Cl` the value was inactive: 45.6%.
On to `COc1ccc2c(c1)CC(C(=O)NCCCN1CCN(c3ccccc3F)CC1)CO2` (stereo not drawn), for which the activation was inactive: -3%.
`CCC(=O)N1CCc2cc(CNS(=O)(=O)c3ccc(NC(=O)CC(C)C)cc3)ccc21`: the activation was inactive: 0.129%.
Regarding `CCc1c(C)sc2c1CCN(C(=O)Nc1cc(Cl)c(OC)cc1OC)C2c1ccccc1` (stereo not drawn), the activation is inactive: -9.27%.
In the case of `COc1cccc2c1Oc1ncccc1N(C(=O)CCC(=O)NC(C)C)C2`, the activation was inactive: 8.46%.
Regarding `CCN(CC)S(=O)(=O)c1ccc(NC(=O)c2c(C)oc3ncnc(N4CCOCC4)c23)cc1`, the activation was inactive: -12.5%.
As to `CCn1c(C)c(C)c2cc(C(=O)NCc3ccc(OC)cc3OC)ccc21`, the activation was inactive: -26.1%.
In the case of `CC(C)(C)c1ccc(C2=NC(C)(C)N(CC(=O)Nc3ccc(F)c(F)c3)C2=O)cc1`, the activation was inactive: 2.63%.
For `Cc1ccc(-c2nnc(Nc3ccc(OCC(N)=O)cc3)c3ccccc23)cc1S(=O)(=O)N(C)C` the value was inactive: -2.43%; for `CCOC(=O)c1c(NC(=O)c2cc3nc(-c4ccccc4)cc(C(F)(F)F)n3n2)sc2c1CCC(C)C2` (stereo not drawn), inactive: -15.7%.
